The campaign covered roughly 310,000 compounds. About 14,000 (4.5%) showed an effect of 50% or more. The effect is printed as a negative number. Some of the results follow.
Target: human ether-à-go-go-related gene (hERG) potassium channel (human, UniProt Q12809)
Experiment: primary screen, population patch clamp on CHO cells stably expressing hERG
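Also: peak tail current of the secondary pulse compared with the same well before compound.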

human ether-à-go-go-related gene (hERG) potassium channel, sequence (Q12809 whole entry, looked up): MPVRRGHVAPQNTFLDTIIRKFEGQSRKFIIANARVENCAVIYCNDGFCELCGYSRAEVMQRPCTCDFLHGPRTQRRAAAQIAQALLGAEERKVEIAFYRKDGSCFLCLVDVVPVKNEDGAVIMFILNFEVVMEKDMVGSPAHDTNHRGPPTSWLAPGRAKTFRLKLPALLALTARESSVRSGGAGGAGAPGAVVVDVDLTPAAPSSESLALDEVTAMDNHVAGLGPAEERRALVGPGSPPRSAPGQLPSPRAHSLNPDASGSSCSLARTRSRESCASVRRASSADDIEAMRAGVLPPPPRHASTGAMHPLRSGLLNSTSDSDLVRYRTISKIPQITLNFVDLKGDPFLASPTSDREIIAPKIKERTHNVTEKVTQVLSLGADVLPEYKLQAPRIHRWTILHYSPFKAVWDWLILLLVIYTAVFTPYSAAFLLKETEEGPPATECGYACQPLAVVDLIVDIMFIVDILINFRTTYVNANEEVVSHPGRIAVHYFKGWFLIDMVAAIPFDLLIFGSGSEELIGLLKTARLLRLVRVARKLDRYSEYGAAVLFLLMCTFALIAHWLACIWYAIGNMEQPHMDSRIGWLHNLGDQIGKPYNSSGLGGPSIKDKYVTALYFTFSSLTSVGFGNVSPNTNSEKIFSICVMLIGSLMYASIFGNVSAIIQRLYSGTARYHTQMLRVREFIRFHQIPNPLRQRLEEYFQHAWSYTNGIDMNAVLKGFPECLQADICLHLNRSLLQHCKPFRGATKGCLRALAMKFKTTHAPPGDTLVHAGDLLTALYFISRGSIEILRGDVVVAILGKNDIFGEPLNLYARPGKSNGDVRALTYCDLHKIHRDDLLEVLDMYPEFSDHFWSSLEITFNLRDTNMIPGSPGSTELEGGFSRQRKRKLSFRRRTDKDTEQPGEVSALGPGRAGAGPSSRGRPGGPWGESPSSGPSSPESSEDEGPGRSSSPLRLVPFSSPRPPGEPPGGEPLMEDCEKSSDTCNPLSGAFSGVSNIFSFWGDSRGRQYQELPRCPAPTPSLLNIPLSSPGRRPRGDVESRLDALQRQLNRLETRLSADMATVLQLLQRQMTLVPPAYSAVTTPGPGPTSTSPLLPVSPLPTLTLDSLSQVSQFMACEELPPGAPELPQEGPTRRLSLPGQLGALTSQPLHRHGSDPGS

Compound	hERG current change (%, negative = inhibition) at 10uM [%]
Cc1ccc(-n2ncc3ccccc3c2=O)cc1Cl	-3.72
Cc1cc(O)c(-c2n[nH]c3c2C(c2cccc(O)c2)N(Cc2cccnc2)C3=O)cc1Cl (centres unmarked)	11.4
Cc1nc(C(=O)N2CCc3c([nH]c4ccccc34)C2c2ccccn2)cs1 (centres unmarked)	-7.68
COC(=O)CSc1[nH]c2cc(C)ccc2c1[N+](=O)[O-]	21.5
COc1cc2c(cc1NC(=O)CSc1nc3ccccc3[nH]1)oc1ccccc12	15.3
Cc1nn(C)cc1-c1n[nH]c(=S)n1-c1ccc(F)cc1	22.9
CCCCSc1nnc(-c2ccc(NC(=O)CCc3ccccc3)cc2)n1C	20.2
Nc1ccc(C(=O)OCCCc2nc3ccccc3[nH]2)cc1	12.2
Cc1nnsc1C(=O)N1CCCC(N2CCN(c3ccc(F)cc3)CC2)C1 (centres unmarked)	-12.3
O=C(NCc1ccccc1)c1cc[n+]([O-])cc1	4.76
CCN1C(=O)[C@@H]2[C@@H](c3ccc(-c4ccccc4)cc3)N3CCCC[C@@]3(C(=O)OC)[C@@H]2C1=O.O=C(O)C(F)(F)F	13.9
CCOC(=O)C1(Cc2cccc(OC)c2)CCN(Cc2cc(OC)ccc2OC)CC1	-67.2
CCOc1ccc(Cn2c3ccc(OC)cc3c3nc4ccccc4nc32)cc1	15.4
Cc1ccc(C)c(NCc2n[nH]c(=S)n2-c2ccccc2)c1	15
CN(C)c1ccc(/C=C2/C(=N\O)C3CCN2CC3)cc1.Cl	4.49
CCOC(=O)CC1COCCN1C(=O)c1cc(COc2ccc(F)cc2Cl)on1 (centres unmarked)	-23.2
O=C(N/N=C/c1ccc(Br)o1)c1cncc(Br)c1	0.479
Cn1ncc([N+](=O)[O-])c1C(=O)Nc1ccccc1C(=O)O	17.1
NNC(=O)CNC(=O)c1ccc(F)cc1	21.7
CCC1=Nc2cc(C(=O)O)ccc2Sc2ccccc21	21.2
O=C(/C=C\c1ccco1)Nc1nc(-c2ccc3ccccc3c2)cs1	14.2
O=C(Nc1cc(N2CCCCC2)ncn1)c1ccc(F)cc1	-5.58

Compound	hERG current change (%, negative = inhibition) at 10uM [%]
CCCCCNC(=O)Cc1cc(=O)[nH]c(=O)[nH]1	24.8
O=c1[nH]c(=O)n(-c2ccc(Cl)cc2)c(O)c1C=NCCN1CCCCC1	2.13
CC(C)CNS(=O)(=O)c1ccc(CCC(=O)N2CCN(c3ccc(F)cc3)CC2)cc1	-50.3
O=C(O)CN1C(=O)C(=O)N(Cc2ccc(Cl)cc2Cl)C1=O	19.9
Cc1ccc(C)c(OCCC(=O)OCC(=O)NCCc2ccc(S(N)(=O)=O)cc2)c1	-46.5
Cc1ccc(S(=O)(=O)N[C@H](C(=O)OCC(=O)N2N=C(c3ccc(Cl)cc3)CC2c2ccco2)C(C)C)cc1 (some centres unmarked)	-5.55
Cc1ccc(Cl)c(NC(=S)N(CCCN2CCOCC2)Cc2ccco2)c1	-35.3
CCCc1cc(=O)[nH]c(SCC(=O)N2CCN(c3ccc(F)cc3)CC2)n1	-15.2
CC(C)=N/N=C1/NC(=O)C(CC(=O)Nc2cc(Cl)ccc2C)S1 (centres unmarked)	-1.67
CC1(C)CC(=NO)CC(C)(C)N1	6.44
CCn1c(=O)c2cc(C(=O)NCc3cccs3)sc2c2ccccc21	9.62
CCOC(=O)C1Sc2[nH]c(=O)sc2C(c2ccc(Cl)cc2)C1C(=O)OCC (centres unmarked)	-1.1
O=C1C2C3C=CC([C@@H]2C(=O)N1C1CC1)[C@H]1C(=O)N(C2CC2)C(=O)C31 (some centres unmarked)	10.8
N#Cc1ccccc1OCC(=O)OCC(=O)c1c[nH]c2ccccc12	-18.4
Cc1cc(C)cc(-n2ccnc2SCC(=O)c2c(N)n(C3CC3)c(=O)[nH]c2=O)c1	0.393
COc1ccc(C23CC4CC(CC(C4)C2)C3)cc1C(=O)NCCN(C)C.Cl	-35.6
O=C(NCc1ccccc1Cl)c1ccccc1CCc1ccccc1	18.5
O=C(O)CCC(=O)N1N=C(c2ccccc2)CC1c1cccs1 (centres unmarked)	-0.51
COc1ccc(NC(=S)N2CCN(C(c3ccccc3)c3ccccc3)CC2)c(OC)c1	8.77
Cc1ccccc1-n1c(SCC(=O)NC(N)=O)nc2sc(-c3ccccc3)cc2c1=O	12.1
COc1ccc(OCCSc2ncn[nH]2)cc1	-14
COc1ccc(C)cc1NC(=O)C(Sc1nnnn1C)c1ccccc1 (centres unmarked)	-27.6
